We go through 68 cell lines from the supplement of paper PMC4967469.

IC50 is the fitted dose that halves viability relative to control wells, and lower means more sensitive; a fit beyond the top or the lowest dose is shown as a bound at that dose. The AUC spans the tested range (256-fold, ending at the top dose) of the same fit; the more sensitive the line, the further below 1. Where the top dose is marked as inferred, it was calculated from the reported fits. Bounds are passed on as bounds.

Compound in the experiment: N.N.[Cl][Pt][Cl] [Cisplatin]
Put plainly: Viability of human cancer cell lines after 72 h of drug (GDSC screen). As to conditions: top dose inferred. On the procedure:
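Human cancer cell lines in 384-well plates, medium with 10% serum, drug for 72 h over a 256-fold dose range (nine 2-fold or five 4-fold steps up to the top dose). Adherent lines were fixed and stained with the nucleic acid dye Syto60, suspension lines read with resazurin; signal relative to control wells, capped at 0 and 100%. One two-parameter sigmoid per drug and line, fitted in a mixed model over all curves with the slope shared within a line.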
As usually defined, the IC50 is the point on the concentration scale where inhibition reaches its midpoint. Regarding “G-MEL (melanoma, adherent, top dose 10 µM)”, the AUC was found to be 0.662 and the IC50 came to 1.75 µM.
For “GA-10 (Burkitt lymphoma, suspension, top dose 10 µM)”, the AUC is 0.947 and the IC50 was > 10 µM.
The like results for “GAK (melanoma, adherent, top dose 10 µM)” were, in that order, 0.989 and > 10 µM.
Consider GB-1 (glioma, adherent, top dose 10 µM), for which the AUC is 0.671 and the 50% inhibitory concentration (IC50) amounted to 2.05 µM.
With “GCIY (stomach, adherent, top dose 10 µM)”, the AUC stood at 0.922 and the IC50 is > 10 µM.
For “GDM-1 (acute myeloid leukaemia, suspension, top dose 10 µM)”, the AUC is 0.98 and the IC50 is > 10 µM.
On to GI-1 (glioma, adherent, top dose 10 µM), for which the AUC was 0.679 and the IC50 turned out to be 1.93 µM.
For “GI-ME-N (neuroblastoma, adherent, top dose 10 µM)”, in that order: 0.869 and > 10 µM.
Regarding “GMS-10 (glioma, adherent, top dose 10 µM)”, the AUC is 0.901 and the IC50 was > 10 µM.
As to “GOTO (neuroblastoma, adherent, top dose 10 µM)”, the AUC was determined as 0.676 and the IC50 came to 2.09 µM.
For “GR-ST (lymphoblastic leukaemia, suspension, top dose 10 µM)”, in that order: 0.83 and 8.21 µM.
As for “GRANTA-519 (B-cell lymphoma, suspension, top dose 10 µM)”, the AUC turned out to be 0.897 and the IC50 was > 10 µM.
With “GT3TKB (stomach, adherent, top dose 10 µM)”, the AUC is 0.847 and the IC50 is 6.07 µM.
For H4 (glioma, adherent, top dose 10 µM), in that order: 0.799 and 4.71 µM.
Regarding “H9 (lymphoid neoplasm, suspension, top dose 10 µM)”, the AUC turned out to be 0.903 and the 50% inhibitory concentration (IC50) was 9.09 µM.
For “H290 (mesothelioma, adherent, top dose 10 µM)”, in that order: 0.832 and 5.64 µM.
The like results for “H513 (mesothelioma, semi-adherent, top dose 10 µM)” were, in that order, 0.865 and > 10 µM.
The like results for “H2369 (mesothelioma, adherent, top dose 10 µM)” were, in that order, 0.788 and 4.55 µM.
For the cell line “H2373 (mesothelioma, adherent, top dose 10 µM)”, the AUC worked out at 0.961 and the IC50 is > 10 µM.
As for “H2461 (mesothelioma, adherent, top dose 10 µM)”, the AUC was determined as 0.942 and the IC50 was > 10 µM.
The like results for “H2595 (mesothelioma, adherent, top dose 10 µM)” were, in that order, 0.928 and > 10 µM.
The like results for “H2722 (mesothelioma, adherent, top dose 10 µM)” were, in that order, 0.899 and > 10 µM.
On to “H2731 (mesothelioma, adherent, top dose 10 µM)”, for which the AUC stood at 0.904 and the IC50 is > 10 µM.
As for “H2795 (mesothelioma, adherent, top dose 10 µM)”, the AUC turned out to be 0.93 and the IC50 was > 10 µM.
In the case of “H2869 (mesothelioma, adherent, top dose 10 µM)”, the AUC came out at 0.925 and the IC50 is > 10 µM.
The like results for “H3118 (head and neck, adherent, top dose 10 µM)” were, in that order, 0.886 and > 10 µM.
Consider “H3255 (lung adenocarcinoma, adherent, top dose 10 µM)”, for which the AUC amounted to 0.957 and the IC50 is > 10 µM.
For “HA7-RCC (kidney, adherent, top dose 10 µM)”, in that order: 0.855 and 9.31 µM.
For the cell line “HAL-01 (lymphoblastic leukaemia, suspension, top dose 10 µM)”, the AUC was 0.849 and the IC50 was 6.19 µM.
For “HARA (lung squamous cell carcinoma, adherent, top dose 10 µM)”, in that order: 0.893 and > 10 µM.
For “HC-1 (hairy cell leukaemia, suspension, top dose 10 µM)”, in that order: 0.968 and > 10 µM.
In the case of “HCC38 (breast, adherent, top dose 10 µM)”, the AUC was determined as 0.971 and the IC50 was > 10 µM.
The like results for “HCC70 (breast, adherent, top dose 10 µM)” were, in that order, 0.878 and 9.86 µM.
As to “HCC202 (breast, adherent, top dose 10 µM)”, the AUC worked out at 0.91 and the IC50 was > 10 µM.
In the case of “HCC1143 (breast, adherent, top dose 10 µM)”, the AUC was determined as 0.932 and the IC50 is > 10 µM.
Turning to “HCC1187 (breast, suspension, top dose 10 µM)”, the AUC turned out to be 0.897 and the IC50 was > 10 µM.
Consider “HCC1395 (breast, adherent, top dose 10 µM)”, for which the AUC was 0.85 and the IC50 was > 10 µM.
Turning to “HCC1419 (breast, adherent, top dose 10 µM)”, the AUC was determined as 0.807 and the IC50 stood at 8.02 µM.
Turning to “HCC1428 (breast, adherent, top dose 10 µM)”, the AUC was found to be 0.987 and the IC50 is > 10 µM.
For “HCC1500 (breast, adherent, top dose 10 µM)”, in that order: 0.987 and > 10 µM.
As for “HCC1569 (breast, adherent, top dose 10 µM)”, the AUC is 0.969 and the IC50 is > 10 µM.
The like results for “HCC1937 (breast, adherent, top dose 10 µM)” were, in that order, 0.91 and > 10 µM.
For “HCC1954 (breast, adherent, top dose 10 µM)”, in that order: 0.961 and > 10 µM.
Take “HCC2157 (breast, suspension, top dose 10 µM)”: the AUC was 0.936 and the IC50 was > 10 µM.
For “HCC2218 (breast, suspension, top dose 10 µM)”, in that order: 0.975 and > 10 µM.
For “HCC2998 (large intestine, adherent, top dose 10 µM)”, the AUC is 0.915 and the IC50 was > 10 µM.
For “HCC-15 (lung squamous cell carcinoma, adherent, top dose 10 µM)”, in that order: 0.943 and > 10 µM.
As to “HCC-44 (lung adenocarcinoma, adherent, top dose 10 µM)”, the AUC stood at 0.719 and the IC50 worked out at 2.56 µM.
The like results for “HCC-56 (large intestine, adherent, top dose 10 µM)” were, in that order, 0.966 and > 10 µM.
For “HCC-78 (lung adenocarcinoma, adherent, top dose 10 µM)”, in that order: 0.915 and > 10 µM.
For “HCC-366 (non-small cell lung carcinoma, adherent, top dose 10 µM)”, the AUC amounted to 0.793 and the 50% inhibitory concentration (IC50) was found to be 4.77 µM.
With “HCC-827 (lung adenocarcinoma, adherent, top dose 10 µM)”, the AUC amounted to 0.838 and the IC50 was determined as 8.29 µM.
For “HCT-15 (large intestine, adherent, top dose 10 µM)”, in that order: 0.917 and > 10 µM.
For the cell line “HD-MY-Z (Hodgkin lymphoma, adherent, top dose 10 µM)”, the AUC was 0.912 and the IC50 is > 10 µM.
Consider “HDLM-2 (Hodgkin lymphoma, suspension, top dose 10 µM)”, for which the AUC is 0.962 and the IC50 is > 10 µM.
Regarding “HDQ-P1 (breast, adherent, top dose 10 µM)”, the AUC was 0.94 and the IC50 was > 10 µM.
The like results for “HEC-1 (endometrium, adherent, top dose 10 µM)” were, in that order, 0.904 and > 10 µM.
Turning to “HGC-27 (stomach, adherent, top dose 10 µM)”, the AUC was determined as 0.865 and the IC50 came out at 6.71 µM.
For “HH (T-cell leukaemia, suspension, top dose 10 µM)”, in that order: 0.871 and > 10 µM.
Turning to “HL-60 (acute myeloid leukaemia, suspension, top dose 10 µM)”, the AUC came out at 0.859 and the concentration for half-maximal inhibition (IC50) was found to be 7 µM.
Take “HMV-II (melanoma, adherent, top dose 10 µM)”: the AUC is 0.926 and the half-inhibitory concentration (IC50) is > 10 µM.
The like results for “HN (head and neck, adherent, top dose 10 µM)” were, in that order, 0.855 and 7.23 µM.
For “HO-1-u-1 (head and neck, adherent, top dose 10 µM)”, in that order: 0.932 and > 10 µM.
The like results for “HOP-62 (lung adenocarcinoma, adherent, top dose 10 µM)” were, in that order, 0.8 and 4.84 µM.
With “HOP-92 (large cell lung carcinoma, adherent, top dose 10 µM)”, the AUC is 0.716 and the IC50 is 2.85 µM.
On to “HOS (osteosarcoma, adherent, top dose 10 µM)”, for which the AUC was 0.749 and the IC50 turned out to be 2.79 µM.
Regarding “HSC-2 (head and neck, adherent, top dose 10 µM)”, the AUC amounted to 0.944 and the IC50 is > 10 µM.
In the case of “HSC-4 (head and neck, adherent, top dose 10 µM)”, the AUC came to 0.643 and the half-inhibitory concentration (IC50) is 1.78 µM.
